Measured values as given in the supplement of paper PMC8728848.
The list shows a part of the results.

Columns and labels:
Assay in all cases: glycan array binding signal (z-score within array); higher = stronger binding
Conditions in all cases: glycan notation: IUPAC condensed, linker removed
[1] = target: Gal(a1-3)Gal(b1-4)GlcNAc(b1-2)Man
How it was run: (§1)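 From the Consortium for Functional Glycomics database, 3228 arrays were curated, keeping only those whose protein sequence was available. Binding is given as a within-array Z-score averaged across arrays sharing a protein sequence and across linkers. Negative Z-scores can be read as non-binding.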

[2] = target: Gal(a1-3)Gal(b1-4)GlcNAc(b1-2)Man(a1-3)[Gal(a1-3)Gal(b1-4)GlcNAc(b1-2)Man(a1-6)]Man(b1-4)GlcNAc(b1-4)GlcNAc
How it was run: as §1

[3] = target: Gal(a1-3)Gal(b1-4)GlcNAc(b1-3)GalNAc
How it was run: as §1

[4] = target: Gal(a1-3)Gal(b1-4)GlcNAc(b1-6)GalNAc
How it was run: as §1

[5] = target: Gal(a1-3)Gal(b1-4)[Fuc(a1-3)]GlcNAc
How it was run: as §1

[6] = target: Gal(a1-3)Gal(b1-4)[Fuc(a1-3)]GlcNAc(b1-2)Man(a1-3)[Gal(a1-3)Gal(b1-4)[Fuc(a1-3)]GlcNAc(b1-2)Man(a1-6)]Man(b1-4)GlcNAc(b1-4)GlcNAc
How it was run: as §1

[7] = target: Gal(a1-3)GalNAc
How it was run: as §1

[8] = target: Gal(a1-3)[Gal(a1-4)]Gal(b1-4)GlcNAc
How it was run: as §1

[9] = target: Gal(a1-4)Gal(b1-3)GlcNAc(b1-2)Man(a1-3)[Gal(a1-4)Gal(b1-3)GlcNAc(b1-2)Man(a1-6)]Man(b1-4)GlcNAc(b1-4)GlcNAc
How it was run: as §1

[10] = target: Gal(a1-4)Gal(b1-4)Glc
How it was run: as §1

[11] = target: Gal(a1-4)Gal(b1-4)GlcNAc
How it was run: as §1

[12] = target: Gal(a1-4)Gal(b1-4)GlcNAc(b1-2)Man(a1-3)[Gal(a1-4)Gal(b1-4)GlcNAc(b1-2)Man(a1-6)]Man(b1-4)GlcNAc(b1-4)GlcNAc
How it was run: as §1

[13] = target: Gal(a1-4)Gal(b1-4)GlcNAc(b1-3)Gal(b1-4)Glc
How it was run: as §1

[14] = target: Gal(a1-4)GlcNAc
How it was run: as §1

[15] = target: Gal(a1-6)Glc
How it was run: as §1

[16] = target: Gal(b1-2)Gal
How it was run: as §1

[17] = target: Gal(b1-3)Gal
How it was run: as §1

[18] = target: Gal(b1-3)Gal(b1-4)GlcNAc
How it was run: as §1

[19] = target: Gal(b1-3)GalNAc
How it was run: as §1

[20] = target: Gal(b1-3)GalNAc(a1-3)[Fuc(a1-2)]Gal(b1-4)Glc
How it was run: as §1

[21] = target: Gal(b1-3)GalNAc(a1-3)[Fuc(a1-2)]Gal(b1-4)GlcNAc
How it was run: as §1

[22] = target: Gal(b1-3)GalNAc(b1-3)Gal
How it was run: as §1

[23] = target: Gal(b1-3)GalNAc(b1-3)Gal(a1-4)Gal(b1-4)Glc
How it was run: as §1

[24] = target: Gal(b1-3)GalNAc(b1-4)Gal(b1-4)Glc
How it was run: as §1

[25] = target: Gal(b1-3)GalNAc(b1-4)[Neu5Ac(a2-3)]Gal(b1-4)Glc
How it was run: as §1

[26] = target: Gal(b1-3)GlcNAc
How it was run: as §1

[27] = target: Gal(b1-3)GlcNAc(a1-3)Gal(b1-4)GlcNAc
How it was run: as §1

[28] = target: Gal(b1-3)GlcNAc(a1-6)Gal(b1-4)GlcNAc
How it was run: as §1

[29] = target: Gal(b1-3)GlcNAc(b1-2)Man
How it was run: as §1

[30] = target: Gal(b1-3)GlcNAc(b1-2)Man(a1-3)[Gal(b1-3)GlcNAc(b1-2)Man(a1-6)]Man(b1-4)GlcNAc(b1-4)GlcNAc
How it was run: as §1

B1: PX9896A-bth-573-26-573 (Bacteroides thetaiotaomicron) (protein)
chain: ETNNLKTKEDMYKYFGTSKSMLTHVYSYMPQGYQLFATSGGIFTEDRYSMRDCASDDGEFGAYADNIQNTNNGNWSPIKTYDDSWTLYRGIRAANSFIAEIAQVDFTRYEHDGQYTNWMKQLKYFPYEARVLRAHYFFELARRYGDIAMPLEVLTEEEANTIGKTPFSEVISFIVSECDDAANNLPDSYVNEPGAEIGRVTKGFAMAVKSKALLYAASKLHNPSMDTELWKKSAKAAIDIINTGLYSLDPQESANNLDSKEVVLMRINGDDSDFEMFNLPLRMTAGTRTSSLIPYSNYPSQNLVDAFETVNGYKVTLENTGWVCEDPAFDPQSPYENRDKRFYRAILANGMSFKDYTIETFKGGADDGIVSQGGSPTGYFLRKYIQEATSFEPGKEAVSKHHWVIYRYAETLLTYAESMVNAFNDVNYTDETYKYSALWAINEVRKNADMPLIPSMGKDEFMERLYNEWRVEFAFEDHRFWDVRRWKIADTTQRELYGVKIEKQADGTFNFYKNLYETRNWRDCMYLYPIPQSELYKNTNLNPQNTGW
Q: How did the “glycan array binding signal (z-score)” value [1] turn out when B1 was run?
A: 0.595

Q: And the “glycan array binding signal (z-score)” value [2]?
A: 1.07

Q: And the “glycan array binding signal (z-score)” value [3]?
A: -0.107

Q: What about the “glycan array binding signal (z-score)” value [4] of the same binder?
A: 0.925

Q: What about the “glycan array binding signal (z-score)” value [5] of the same binder?
A: 0.702

Q: What about the “glycan array binding signal (z-score)” value [6] of the same binder?
A: 2.9

Q: And the “glycan array binding signal (z-score)” value [7]?
A: -0.302

Q: What about the “glycan array binding signal (z-score)” value [8] of the same binder?
A: 3.79

Q: What about the “glycan array binding signal (z-score)” value [9] of the same binder?
A: 0.806

Q: And the “glycan array binding signal (z-score)” value [10]?
A: 0.696

Q: What about the “glycan array binding signal (z-score)” value [11] of the same binder?
A: -0.124

Q: And the “glycan array binding signal (z-score)” value [12]?
A: 0.471

Q: What about the “glycan array binding signal (z-score)” value [13] of the same binder?
A: -0.305

Q: What about the “glycan array binding signal (z-score)” value [14] of the same binder?
A: 0.584

Q: And the “glycan array binding signal (z-score)” value [15]?
A: -0.739

Q: And the “glycan array binding signal (z-score)” value [16]?
A: -0.829

Q: And the “glycan array binding signal (z-score)” value [17]?
A: -0.599

Q: And the “glycan array binding signal (z-score)” value [18]?
A: -0.711

Q: And the “glycan array binding signal (z-score)” value [19]?
A: -0.329

Q: What about the “glycan array binding signal (z-score)” value [20] of the same binder?
A: -0.889

Q: And the “glycan array binding signal (z-score)” value [21]?
A: -0.054

Q: What about the “glycan array binding signal (z-score)” value [22] of the same binder?
A: -0.496

Q: And the “glycan array binding signal (z-score)” value [23]?
A: -0.08

Q: What about the “glycan array binding signal (z-score)” value [24] of the same binder?
A: -0.458

Q: What about the “glycan array binding signal (z-score)” value [25] of the same binder?
A: 0.433

Q: What about the “glycan array binding signal (z-score)” value [26] of the same binder?
A: -0.711

Q: And the “glycan array binding signal (z-score)” value [27]?
A: -0.321

Q: What about the “glycan array binding signal (z-score)” value [28] of the same binder?
A: -0.111

Q: And the “glycan array binding signal (z-score)” value [29]?
A: -0.375

Q: And the “glycan array binding signal (z-score)” value [30]?
A: 0.457
